T1: Human IL4 (IL004, Millipore) (human, UniProt P05112 25-153)
T1 sequence (looked up): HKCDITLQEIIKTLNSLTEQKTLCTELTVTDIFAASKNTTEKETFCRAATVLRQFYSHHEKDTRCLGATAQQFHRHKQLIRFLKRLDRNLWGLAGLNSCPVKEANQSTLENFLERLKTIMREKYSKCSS

B1: Anti-IL13-(G4S)2-Trestuzumab_Var1 (antibody)
heavy chain: EVQLKESGPGLVAPGGSLSITCTVSGFSLTDSSINWVRQPPGKGLEWLGMIWGDGRIDYADALKSRLSISKDSSKSQVFLEMTSLRTDDTATYYCARDGYFPYAMDFWGQGTSVTVSSGGGGSGGGGSEVQLVESGGGLVQPGGSLRLSCAASGFNIKDTAIHWVRQAPGKCLEWVAEIYPTNGYTEYADSVKGRFTISADTSKNTAYLQMNSLRAEDTAVYYCSRWGGDGFAAMDYWGQGTLVTVSS[gap - human IgG1 Fc]
light chain: DIVLTQSPASLAVSLGQRATISCRASESVDSYGQSYMHWYQQKAGQPPKLLIYLASNLESGVPARFSGSGSRTDFTLTIDPVQAEDAATYYCQQNAEDSRTFGGGTKLEIKGGGGSGGGGS[gap - about 100 residues]
notes: also called anti-IL13 pseudo-IgG with trastuzumab knockout variant 1
B2: IL4 pseudo-IgG (ID 21, anti-IL4-(G4S)2-dsTrasKO2-Fc-huIgG1) (antibody)
light: DIQMTQSPASLSVSVGDTITLTCHASQNIDVWLSWFQQKPGNIPKLLIYKASNLHTGVPSRFSGSGSGTGFTLTISSLQPEDIATYYCQQAHSYPFTFGGGTKLEIKGGGGSGGGGS[gap - about 100 residues]
heavy: QVQLQQSGPELVKPGASVKISCKASGYSFTSYWIHWIKQRPGQGLEWIGMIDPSDGETRLNQRFQGRATLTVDESTSTAYMQLRSPTSEDSAVYYCTRLKEYGNYDSFYFDVWGAGTLVTVSSGGGGSGGGGSEVQLVESGGGLVQPGGSLRLSCAASGFNIKDTYIHWVRQAPGKCLEWVAEIYPTNGYTEYADSVKGRFTISADTSKNTAYLQMNSLRAEDTAVYYCSRWGGDGFYAMDYWGQGTLVTVSS[gap - human IgG1 Fc]
notes: also called IL4 mAb Pseudo-IgG

Experiments:
[1] = biological target: T2, human HER2 (1129-ER, R&D Systems) (human, UniProt P04626 part only); assay: SPR (BIAcore 3000), binding test with HER2 captured by the anti-human Fc antibody, constructs injected at 100 nM; response as % of theoretical Rmax
T2 construct: also called Receptor tyrosine-protein kinase erbB-2

[2] = biological target: T1, Human IL4 (IL004, Millipore); assay: SPR, BIAcore 3000; antibody captured by anti-human Fc, antigen as analyte; column head says nM, but kd/ka gives M
Experimental: (§1) Surface plasmon resonance (SPR) was used to assess the binding of antigens to antibody. Binding of antigens to the antibody constructs was measured using surface plasmon resonance (SPR) with a BIAcore 3000 instrument (GE Healthcare) with HBS-EP buffer (GE Healthcare). Human IL4 (IL004, Millipore) and human IL13 (IL012, Millipore), human HER2 (1129-ER, R&D Systems), human TNFa (H8916, SIGMA Aldrich), human CTLA4 (CT4-H5229, ACRO Biosystems), human PD-1 (8986-PD, R&D Systems), and human IL6Ra (227-SR/CF, R&D Systems) were used as antigens. The anti-human Fc capture antibody (human antibody capture kit, GE Life Sciences) was immobilized via primary amine groups (11000 RU) on a research grade CM5 chip (GE Life Sciences) using standard procedures. […] Binding tests with HER2 was performed by capture of the antigen with the anti-human Fc antibody. The tested antibody constructs were used as analytes and injected at 100 nM concentration for 240 sec with a dissociation time of 300 sec at a flow rate of 30 μL/min. Binding kinetics measurements were done using the captured antibodies with injects of two-fold serial dilutions of the analytes of 3 nM to 100 nM. […] Chip surfaces were regenerated with 2 min injects of the regeneration buffer provided with the capture kit. Sensorgrams were double referenced with a blank chip surface and HBS-EP buffer blanks. […]

[3] = biological target: T1, Human IL4 (IL004, Millipore); assay: SPR, BIAcore 3000; antibody captured by anti-human Fc, antigen as analyte
Experimental: as §1

Binder | binding result [1] | Kd [2] [pM] | koff [3] [s⁻¹] | kon [3] [M⁻¹ s⁻¹]
B1 | no binding (tested: 100 nM) |  |  | 
B2 |  | 1.94 | 0.000144 | 7.43e+07
